PubChem BioAssay AID493208 (National Center for Advancing Translational Sciences (NCATS), 2011)
In all, about 44,000 compounds went through this assay and about 340 (0.77%) were called active. About 5% were inconclusive and are not listed. Calls follow the shape of the dose curve; as a rule, active = well fitted inhibition curve with a large enough effect; inconclusive = small, poorly fitted or top-dose-only effect; inactive = flat fitted curve, though single readings scatter. The list shows a part of the results.

Assay: Acumen qHTS Assay for Inhibitors of the mTORC1 Signaling Pathway in MEF (Tsc2-/-, p53-/-) Cells: Sytravon;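 also: plate controls were DMSO for no effect and rapamycin for full effect; nearly all actives have a fitted effect of over 50% in size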
Settings: phospho-rpS6 immunofluorescence/PI, 24 h; series mostly up to 38.3 µM; activity change, negative = inhibition: at the top concentration
Procedure, shortened: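 Readout is phospho-S6 Alexa 488 signal normalized to PI per well, reported as % active cells with thresholds set from rapamycin (7.5 nM) and DMSO controls. Cells: Tsc2-/-, p53-/- MEFs, 24 hrs compound at 37 C; PI cell number serves as viability.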

Structure (SMILES)	activity change, negative = inhibition
O=C(NCc1ccc(F)cc1)c1ccc(NC(=O)N2CC3CCCN3c3ccccc32)cc1 (stereo not drawn)	inactive: -4.52%
COCCNC(=O)C1CCCN(S(=O)(=O)c2ccc3c(ccn3C)c2)C1 (stereo not drawn)	inactive: 1.08%
CCOc1ccc(-c2cnc(NCc3ccc(OC)cc3OC)n2C)cc1	inactive: -0.817%
O=C1c2oc3ccc(F)cc3c(=O)c2C(c2cccc([N+](=O)[O-])c2)N1CCCN1CCOCC1 (stereo not drawn)	inactive: 3.23%
Cc1ccc(NC(=O)c2cccn2-c2nnc(N3CCCCC3)s2)cc1Cl	inactive: -1.41%
Cn1nc(C(=O)N2CCN(c3ccccc3F)CC2)c2c1-c1ccccc1SC2	inactive: -1.28%
Cc1ccc2nc(N(Cc3cccnc3)C(=O)C3COc4ccccc4O3)sc2c1 (stereo not drawn)	inactive: -4.91%
Cc1ccc(CSc2cn(CC(=O)N3CCCCC3)c3ccccc23)cc1	inactive: -5.53%
CCc1ccc(CN(C(=O)c2cc3ccccc3oc2=O)C2CCS(=O)(=O)C2)cc1 (stereo not drawn)	inactive: -1.72%
CC(=O)c1ccc(NC(=O)c2ncn(-c3ccccc3)n2)cc1	inactive: 7.22%
COc1ccc(Cl)cc1NC(=O)CCC(=O)c1ccc(C)cc1	inactive: 3.08%
COc1ccc(CNC(=O)COCc2cc(-c3cccs3)on2)cc1OC	inactive: -0.204%
CCCCNC(=O)CCCn1c(=O)c2ccccc2n(Cc2ccccc2C)c1=O	inactive: -16.2%
CCc1c(C)sc2c1CCN(Cc1ccc(F)cc1)C2c1ccccc1 (stereo not drawn)	inactive: 0%
CCn1cc(C(=O)NCCc2ccccc2)c(=O)c2cc(S(=O)(=O)N(C)C3CCCCC3)ccc21	inactive: -0.432%
COc1ccc(-c2noc(-c3ccc(NCc4ccccc4OC)c([N+](=O)[O-])c3)n2)cc1	inactive: -16.8%
Cc1ccc(C2=Nc3ccccc3N(CC(=O)Nc3cccc(F)c3)C(=O)C2)cc1C	inactive: -12%
CC(=O)c1[nH]c(C)c(C(=O)NCCc2ccc(C)cc2)c1C	inactive: -14.8%
CC(=O)Nc1cccc(C(=O)NCc2ccc3c(c2)CCN3C(C)=O)c1	inactive: 0.958%
CN(C)CCCNc1oc(/C=C/c2ccc(F)cc2)nc1C#N	inactive: -5.97%
Cc1ccc(NC(=O)CCCn2c(=O)c3cccn3c3cccnc32)c(Cl)c1	inactive: -0.283%
O=c1oc2c3c(ccc2c2ccccc12)OCN(Cc1cccc(Cl)c1)C3	inactive: -15.9%
CCOc1ccccc1N(C)C(=O)C1CCCN(c2ncnc3onc(-c4ccc(F)cc4)c23)C1 (stereo not drawn)	inactive: -8.4%
Cc1c(CCNC(=O)Cc2ccccc2)sc2nc(-c3ccc(F)cc3)nn12	inactive: -4.04%
Cc1cc(C)c(NC(=O)CSc2nccn2Cc2ccco2)c(C)c1	inactive: -10.3%

Structure (SMILES)	activity change, negative = inhibition
O=C(CN1CCN(Cc2ccc(Cl)cc2)C1=O)NCc1ccc(F)cc1	inactive: -8.73%
CCOc1ccc(CNC(=O)c2cc3c(=O)n(C)c4ccccc4c3s2)cc1	inactive: -1.32%
O=C(c1ccc2c(c1)OCCO2)N(Cc1cccnc1)c1nc2ccc(F)cc2s1	inactive: -0.464%
Cc1ccc(NC(=O)Cn2c(=O)n(Cc3ccco3)c(=O)c3ccccc32)cc1	inactive: 4.41%
CCN(CC)CCCNC(=O)c1cc(-c2ccc(OC)c(OC)c2)on1	inactive: -2.7%
Cc1ccc(NC(=O)C2CCCN2S(=O)(=O)c2cccc3cccnc23)cc1 (stereo not drawn)	inactive: -2.65%
Cc1cc(C)n2nc(CNS(=O)(=O)c3ccc(Cl)cc3)nc2n1	inactive: -1.96%
CC1CN(C(=O)N2CCC(C(=O)NC3CCCCCC3)CC2)c2cc(Cl)ccc2O1 (stereo not drawn)	inactive: -4.75%
O=C(Cn1cc(SCc2cccc(Cl)c2)c2ccccc21)N1CCOCC1	inactive: -9.06%
COc1cc(C(=O)NC2CC(=O)N(c3cccc(F)c3)C2)cc(OC)c1OC (stereo not drawn)	inactive: -2.02%
COc1ccc(NC(=O)c2ccco2)cc1NC(=O)COc1cc(C)cc(C)c1	inactive: -6.54%
CCC(=O)N1CCc2cc(Br)cc(S(=O)(=O)N3CCN(c4ccccc4)CC3)c21	inactive: -3.68%
CCc1nnc2c(NCc3ccc(F)cc3)nc3ccccc3n12	inactive: 0.999%
COc1ccc(CNC(=O)C2CCCN(S(=O)(=O)c3ccc4c(c3)CCCN4C(C)=O)C2)cc1 (stereo not drawn)	inactive: 2.31%
COc1ccccc1N1CCN(S(=O)(=O)c2ccc(F)c(C(=O)Nc3ccc(C)c(F)c3)c2)CC1	inactive: 4.48%
CCOc1ccc2nc(N3CCCC(C(=O)Nc4ccc(Br)c(C)c4)C3)sc2c1 (stereo not drawn)	inactive: 0.727%
COc1ccc2c(c1)NC(c1ccc(OCC(C)C)cc1)=NC(c1ccncc1)=N2	inactive: -4.73%
COc1ccc(CCNC(=O)c2cc(Sc3cccc(Cl)c3)nc3ccccc23)cc1OC	inactive: 4.99%
COc1ccc2c(c1)CC(C(=O)N1CCC(C(N)=O)CC1)CO2 (stereo not drawn)	inactive: -1.54%
COc1ccccc1N1CCN(C(=O)c2oc3ccccc3c2NC(=O)C(C)Oc2ccccc2)CC1 (stereo not drawn)	inactive: 6.05%
Cc1ccc(C(C)C)c(OCCn2cc(C(=O)c3ccco3)c3ccccc32)c1	inactive: -4.88%
CCOc1ccc(-c2n[nH]c3c2C(c2ccccc2OC)N(c2ccc(Br)cc2)C3=O)cc1 (stereo not drawn)	inactive: 2.03%
COc1cc2c(=O)n(Cc3ccccc3)c(=O)n(CC(=O)Nc3cc(C(F)(F)F)ccc3Cl)c2cc1OC	inactive: 0%
O=C(Cn1cccc1C(=O)c1ccccc1)NCc1ccc(F)cc1	inactive: -2.12%
CN1C(C(=O)Nc2ccc(OC(F)(F)F)cc2)=CC(c2ccc3c(c2)OCO3)=NS1(=O)=O	inactive: 0.958%

Structure (SMILES)	activity change, negative = inhibition
COC(=O)c1cc2oc(C)cc2n1Cc1c(C)cc(C)cc1C	inactive: -8.16%
CCN(CC)c1ccc(NS(=O)(=O)c2ccc3c(c2)CCCN3C(C)=O)c(C)c1	inactive: -6.18%
CCc1ccc(N2CCn3c2nc2c3c(=O)n(Cc3cccc(C)c3)c(=O)n2C)cc1	inactive: 6.89%
CCOC(=O)c1c(C)oc2ncnc(NCCc3ccccc3)c12	inactive: 0.688%
COc1ccc(C2c3c(n(C)c4ccccc34)C(=O)N2CC(=O)Nc2ccc(Cl)cc2)cc1 (stereo not drawn)	inactive: -10.9%
COc1cc2nc(SCC(=O)Nc3ccc(F)cc3)n3nc(CCn4c(C)nc5ccccc54)nc3c2cc1OC	inactive: -15.8%
Cc1ccc(OC(=O)c2snnc2C)cc1C	inactive: -1.15%
CCCN1CCN(CCNC(=O)Nc2cc(OC)cc(OC)c2)CC1	inactive: 2.47%
Cc1ccc(NC(=O)C(=O)NCC(c2ccc3c(c2)OCO3)N2CCOCC2)c(C)c1 (stereo not drawn)	inactive: -2.16%
O=C(CSc1ncc2c(n1)-c1ccccc1N(Cc1ccc(F)cc1)S2(=O)=O)c1ccc(Br)cc1	inactive: -2.07%
CC(C)c1ccc(OCc2cc(=O)n3c4c(sc3n2)CCCC4)cc1	inactive: 3.32%
Cc1cccc(NC(=O)CSc2nc3ccc(NC(=O)c4cccs4)cc3s2)c1	inactive: -13.9%
COc1ccc(OCC(=O)Nc2cc(-c3cccc(Cl)c3)nn2-c2ccccc2)cc1	inactive: 13.9%
CCc1ccc(Nc2cc(C)nc3nc(Cc4ccc(Cl)cc4)nn23)cc1	inactive: -19.2%
CCOC(=O)c1ccc(CSc2nnc3cc(C)c4ccccc4n23)cc1	inactive: -9.09%
COc1ccccc1NC(=O)CN(c1ccc(C(C)C)cc1)S(=O)(=O)c1c(C)noc1C	inactive: 2.01%
O=C(NC1CCCCC1)c1ccc2c(c1)sc1nc(-c3ccccc3)cn12	inactive: 1.42%
N#Cc1ccc(C(=O)N2CCN(c3nc4ccc(F)cc4s3)CC2)cc1	inactive: 0.327%
CCN(CC)CCN(C(=O)c1ccco1)c1nc2c(C)cccc2s1	inactive: -11.1%
COc1cc2c(cc1OC)C(c1ccc(Cl)cc1)N(c1ccc(C)c(F)c1)C(=O)C2 (stereo not drawn)	inactive: -29.5%
COc1ccc(-c2oc3ncn4nc(-c5ccc(Cl)cc5)nc4c3c2-c2ccc(OC)cc2)cc1	inactive: -2.93%
Cc1ccc2c(c1)c(=O)c(C(=O)c1ccccc1)cn2Cc1ccccc1F	inactive: -0.897%
COc1ccc(NC(=O)CC2C(=O)N(c3ccccc3)C(=O)N2CCC2=CCCCC2)cc1 (stereo not drawn)	inactive: 0.0768%
CCOc1cccc(C(=O)Nc2nnc(S(=O)(=O)N(C)c3ccc(C)cc3)s2)c1	inactive: 6.24%
COc1cc(NC(=O)C2CCN(S(=O)(=O)c3c(C)noc3/C=C/c3cccs3)CC2)cc(OC)c1	inactive: 0.335%

Structure (SMILES)	activity change, negative = inhibition
COc1ccc(S(=O)(=O)N(CC(=O)Nc2ccc(OC)cc2OC)c2ccc(Cl)cc2)cc1	inactive: -10.4%
CCN1C(=O)c2ccccc2S(=O)c2ccc(C(=O)NCc3ccc(C)cc3)cc21 (stereo not drawn)	inactive: -1.2%
COc1ccc(-c2nc(SCC(=O)c3ccc(Br)cc3)n[nH]2)cc1	inactive: -16.9%
Cc1c(CNC2CCC(C)CC2)c(C(=O)O)c(C)n1Cc1ccccc1F (stereo not drawn)	inactive: 1.22%
COc1ccc(/C=C(/C#N)c2nc(-c3cc4ccccc4oc3=O)cs2)cc1	inactive: -3.84%
CCC1CN(C(=O)Nc2ccccc2C(F)(F)F)c2ccccc2O1 (stereo not drawn)	inactive: -15.6%
Cc1cccc(N2CC(c3nc4ccc(C)cc4[nH]3)CC2=O)c1 (stereo not drawn)	inactive: -3.42%
CCOc1ccc(NC(=O)CC2C(=O)N(c3ccc(C)cc3)C(=O)N2C2CCCCC2)cc1 (stereo not drawn)	inactive: 0.0187%
O=C(NC1(C(F)(F)F)N=C(c2ccccc2)N(C2CCCCC2)C1=O)c1ccc(F)cc1 (stereo not drawn)	inactive: -2.96%
Cc1cc(C)n(CCc2nc3c4ccccc4nc(SCc4ccc(Cl)cc4)n3n2)n1	inactive: -2.8%
Cn1ccc2cc(S(=O)(=O)N3CCCC(C(=O)NCc4ccc(F)cc4)C3)ccc21 (stereo not drawn)	inactive: -9.25%
CCOc1ccccc1-c1noc(CCCC(=O)Nc2cccc(C(F)(F)F)c2)n1	inactive: -6.92%
CC(=O)Nc1ccc(NC(=O)c2cc3c(=O)n(Cc4cccnc4)ccc3nc2C)cc1	inactive: -0.18%
N#Cc1cccc(NC(=O)C2CCN(c3cnccn3)CC2)c1	inactive: -1.83%
Cc1ccc(-n2nc3cc(C)c(NC(=O)COc4ccccc4)cc3n2)cc1	inactive: -4.18%
Cc1ccc(C(=O)NCC(=O)OCc2cc(=O)n3c(C)csc3n2)cc1	inactive: -2.38%
CCc1cc2c(cc3c(=O)n(CC(=O)NC4CCCCC4)nc(CC)n32)s1	inactive: 0.26%
Cc1cn(C)c(CC(=O)N2CCN(c3cccc(C(F)(F)F)c3)CC2)c1C(=O)O	inactive: -10.1%
CCOC(=O)CCN(c1ccccc1)S(=O)(=O)c1cc(-c2cc(C)no2)ccc1C	inactive: -12.8%
Cc1cc(C)c2oc(C(=O)Nc3c(C)n(C)n(-c4ccccc4)c3=O)cc(=O)c2c1	inactive: -10.4%
O=C(NCC(c1cccnc1)N1CCc2ccccc21)c1ccc(F)c(F)c1 (stereo not drawn)	inactive: -7.72%
CC(=O)N1CCc2c(sc3c2c(=O)n(-c2ccccc2C)c(=O)n3CC(=O)c2ccccc2)C1	inactive: -0.864%
CC(C)n1cc2c(c1-c1ccccc1Cl)c(=O)n(C)c(=O)n2C	inactive: -1.01%
